In US20110124501A1, “Active compound combinations” (Bayer CropScience AG, priority 2009, published 2011):

Test system: Phytophthora infestans
Assay type: in vivo

With “(1R)-1,2,3,4-tetrahydronaphthalen-1-yl 2-(1-{[3,5-bis(difluoromethyl)-1H-pyrazol-1-yl]acetyl}piperidin-4-yl)-1,3-thiazole-4-carboxylate [(I-8)]” the “Efficacy in % found” value (application rate 0.1 ppm a.i.) was 26% and the “Efficacy in % found” value (application rate 0.2 ppm a.i.) was 52%.

Like-named read-outs stand apart in the source and are kept apart here.
